Activation data for 85 compounds are collected here from PubChem BioAssay AID1346428 (National Center for Advancing Translational Sciences (NCATS), 2018).

Out of some 48,000 compounds screened, about 1,200 (2.5%) were called active. Not shown: some 2% with an inconclusive outcome.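 The calls were made as follows: active = activation of at least 60% and not above a set upper limit (about 1 call in 100 departs from these limits); inconclusive = activation of 40% to 60%, or above that upper limit; inactive = activation under 40%.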 The list shows a part of the results.

In this assay the target is Probable G-protein coupled receptor 32 (Homo sapiens) (UniProt O75388). Briefly: qHTS for Agonists of Human Resolvin D1 Receptor DRV1. Also: 0% is about no effect. Conditions: CHO-K1 GPR32 beta-arrestin PathHunter luminescence, 90 min; at 76.9 µM; stronger effect = higher value; zero percent set by DMSO-only wells. The gist of the method: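 Cells are plated overnight, treated with compounds in DMSO for 90 minutes at 37 °C, and developed with PathHunter detection reagent for 1 hour before luminescence is read; signal reflects beta-arrestin binding to GPR32 in engineered CHO-K1 cells.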
Sequence of UniProt O75388 (O75388 whole entry, looked up): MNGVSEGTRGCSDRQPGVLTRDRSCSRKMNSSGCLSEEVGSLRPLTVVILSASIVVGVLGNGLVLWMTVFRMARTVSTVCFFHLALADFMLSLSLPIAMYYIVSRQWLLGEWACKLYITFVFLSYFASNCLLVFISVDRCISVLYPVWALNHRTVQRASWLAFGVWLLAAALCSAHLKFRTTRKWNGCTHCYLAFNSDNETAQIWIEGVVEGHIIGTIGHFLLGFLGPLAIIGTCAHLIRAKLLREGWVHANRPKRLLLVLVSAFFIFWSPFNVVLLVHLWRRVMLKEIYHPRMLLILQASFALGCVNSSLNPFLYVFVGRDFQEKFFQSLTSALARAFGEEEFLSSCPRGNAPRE
(In general: Quantitative high-throughput screening tests each substance at several concentrations.)
For `CSc1ncc(C(=O)Nc2cccc(Cl)c2C)c(-c2ccccc2)n1`, the activation was inactive: 0.0328%.

On to `O=C(NCc1ccccn1)c1nn(-c2ccccc2Cl)nc1CO`, for which the activation is inactive: -4.39%.

For the compound `Cc1ccccc1NC(=O)c1ccc(CNS(=O)(=O)c2ccc3c(c2)C(C)(C)C(=O)N3C)cc1`, the activation was inactive: -13.9%.

Turning to `COc1ccccc1CNC(=O)C(Cc1ccccc1)NS(=O)(=O)c1ccc2c(c1)CCN2C(C)=O` (stereo not given), the activation is inactive: 7.97%.

Consider `Cc1cc(NC(=O)CSc2ncc(C(=O)Nc3ccccc3)c(=O)n2C)no1`, for which the activation was inactive: -9.48%.

`CCCCOc1ccc(C(=O)NCCc2csc3nc(-c4ccccc4F)nn23)cc1`: the activation is inactive: 29%.

In the case of `CCNC(=O)CC1C(=O)N(c2ccc(F)cc2)C(=O)N1Cc1ccc(C)cc1` (stereo not given), the activation was inactive: 0.37%.

Turning to `CC(=O)OC/C=C(C)/C=C/C=C(C)/C=C/C1=C(C)CCCC1(C)C`, the activation was inactive: 15.5%.

As for `Cc1ccc(Cl)cc1N(C)C(=O)c1cc2ccc3cccnc3c2[nH]1`, the activation is inactive: -22.1%.

As to `CCOc1ccccc1C(=O)NCC(c1ccc(N(C)C)cc1)N1CCCC1` (stereo not given), the activation was inactive: 3.62%.

For `CS(=O)(=O)N1CCC(N2CCN(Cc3ccc(F)cc3)C(=O)C2=O)CC1`, the activation is inactive: -6.09%.

As to `CCn1c(CN2CCN(C)CC2)nc2cc(NC(=O)c3cc(OC)c(OC)c(OC)c3)ccc21`, the activation was inactive: 2.33%.

With `Clc1ccc2c(c1)N=C(N1CCNCC1)c1ccccc1N2`, the activation is inactive: -20.8%.

Regarding `CSc1ccc(CCNC(=O)c2ccc3c(c2)c(C)c(C)n3Cc2ccc(F)cc2)cc1`, the activation is inactive: -13.3%.

For the compound `COCCn1c(CNC(=O)c2cc(OC)c(OC)c(OC)c2)nc2cccnc21`, the activation is inactive: -2.8%.

On to `CC(=O)c1cccc(NC(=O)c2cc(-c3ccc4c(c3)OCCO4)on2)c1`, for which the activation was inactive: -27.7%.

Take `CCOC(=O)CNC(=O)Cn1nc(N2CCN(c3ccccc3)CC2)ccc1=O`: the activation is inactive: -8.75%.

As to `COc1ccc(CCNC(=O)c2cc3c(=O)[nH]c4ccc(C)cc4c3s2)cc1OC`, the activation is inactive: -9.11%.

Consider `CCN(CC)C(=O)C1CCCN(c2ncnc3c2nc2n3CCCCC2)C1` (stereo not given), for which the activation was inactive: 17%.

For the compound `CCOc1ccccc1CNC(=O)CN1C(=O)C2CCCCN2c2ccc(C(=O)N(C)C)cc21` (stereo not given), the activation is inactive: -19.2%.

For the compound `COC(=O)c1ccc(NC(=O)c2c(NCc3ccc(OC)c(OC)c3)sc3c2CCCC3)cc1`, the activation is inactive: -14.7%.

In the case of `COC(=O)c1ccccc1NC(=O)CCCS(=O)(=O)c1nc(-c2ccccc2OC)cc(C(F)(F)F)n1`, the activation is inactive: 13.3%.

For the compound `CCCCCCCCCCCCCCCCCC(=O)O`, the activation is inactive: -2.64%.

Take `Cc1cccc(C)c1Nc1c(-c2ccccc2O)nc2ncccn12`: the activation is inactive: -23.2%.

Regarding `Cc1ccccc1CNC(=O)c1ccc2c(c1)N(Cc1ccccc1)CCS2`, the activation is inactive: -35.7%.

Regarding `O=c1oc2ccc3ccccc3c2cc1-c1nnc(Nc2cccc(F)c2)s1`, the activation is inactive: 9.85%.

For the compound `O=C(CCCn1c(=O)c2cccn2c2cccnc21)Nc1ccccc1Br`, the activation is inactive: -8.41%.

With `Cc1ccc(CNC(=O)Cn2cc(C(=O)c3ccc(Cl)cc3)c(=O)c3ccc(C)nc32)cc1`, the activation was inactive: 19.3%.

Consider `CCOC(=O)c1c(NC(=O)/C=C/c2ccc(OCC)cc2)sc2c1CCC2`, for which the activation is inactive: 18.7%.

As for `CCCCn1c(=O)c2oc3ccccc3c2n(CC(=O)Nc2ccccc2OC)c1=O`, the activation is inactive: -2.49%.

`CCCCNC(=O)[C@@H](c1ccccc1)N1Cc2ccccc2C1=O`: the activation is inactive: 0.114%.

For the compound `Cc1nn(CC(=O)NCc2ccccc2Br)c(=O)c2cc3occc3n12`, the activation is inactive: -32.2%.

For `Cc1ccc(S(=O)(=O)N2CCCc3cc(NC(=O)c4c(F)cccc4F)ccc32)cc1`, the activation was inactive: -22.4%.

For `CNc1oc(/C=C/c2cc(OC)c(OC)c(OC)c2)nc1C#N`, the activation was inactive: -27.8%.

Consider `O=C(CCn1c(=O)c2cccn2c2cccnc21)N1CCN(c2ccc(Cl)cc2)CC1`, for which the activation was inactive: -22.3%.

With `Cc1cccc(OCCCCn2c(C3CC(=O)N(c4ccc(C)cc4C)C3)nc3ccccc32)c1` (stereo not given), the activation is inactive: -6.67%.

On to `Cc1ccc(Cl)cc1-n1ncc2c(N3CCC(C(N)=O)CC3)ncnc21`, for which the activation was inactive: 3.35%.

On to `O=C(OCC1CCCO1)c1ccc2c(c1)N(Cc1ccccc1F)C(=O)c1ccccc1S2(=O)=O` (stereo not given), for which the activation was inactive: -20.6%.

For the compound `CCOc1ccccc1NC(=O)CSc1nccn1Cc1ccc(F)cc1`, the activation was inactive: -21.2%.

As to `Cc1cccc(CNC(=O)c2cnc3sc(N4CCOCC4)nn3c2=O)c1`, the activation was inactive: -7.85%.

Turning to `Cc1ccc(-n2c(=O)c3ccc(C(=O)NCc4ccccc4Cl)cc3n(CC(N)=O)c2=O)cc1`, the activation was inactive: 1.17%.

For `Cc1ccccc1C(=O)Nc1ccc(C(=O)OCc2cc(=O)n3c4c(sc3n2)CCCC4)cc1`, the activation is inactive: -15.3%.

Regarding `O=C(O)CCc1ccc(-c2ccc(Cl)cc2)n1-c1cccc(C(F)(F)F)c1`, the activation is inactive: 25.8%.

In the case of `CCn1c(=O)cc(OCC(=O)Nc2ccccc2Cl)c2ccccc21`, the activation is inactive: -16.7%.

`CCOc1ccc(CCNC(=O)c2nn(-c3ccc(OC)cc3)c(=O)c3c2c2ccccc2n3C)cc1OCC`: the activation was inactive: -23.6%.

Consider `Cn1c(CN2CCCCC2)nc2cc(NC(=O)c3ccc(Cl)cc3)ccc21`, for which the activation is inactive: -17.1%.

Turning to `CCOC(=O)c1cnc(NCc2ccc(Cl)cc2)c2ccccc12`, the activation was inactive: -27.7%.

As to `CCN(CC)C(=O)c1ccccc1NC(=O)c1cccc(S(=O)(=O)N2CCC(C)CC2)c1`, the activation was inactive: -2.27%.

As for `O=C(NC1CCCCC1)/C(=C/c1ccc(Cl)cc1)NC(=O)c1ccccc1`, the activation was inactive: -12.9%.

For the compound `N#Cc1cc2c(=O)n3ccccc3nc2n(-c2nnc(SCc3ccccc3)s2)c1=O`, the activation was inactive: 23.5%.

Regarding `Cc1ccc(C(=O)CSc2nnc3ccc4ccccc4n23)cc1`, the activation was inactive: 4.73%.

For the compound `COc1cccc(CNC(=O)c2ccc(CS(=O)Cc3ccc(Cl)cc3)o2)c1` (stereo not given), the activation is inactive: -6.28%.

Take `CCC(=O)N1c2ccc(S(=O)(=O)N3CCN(c4ccccc4Cl)CC3)cc2CC1C` (stereo not given): the activation was inactive: -5.51%.

On to `Cc1cccc(N(C)c2nc3ccc(C)cc3n3nnnc23)c1`, for which the activation was inactive: -23.9%.

With `CCOC(=O)C1CCCN(S(=O)(=O)c2cc(-c3cc(C)no3)ccc2C)C1` (stereo not given), the activation was inactive: -10.3%.

For `Cc1ccc(NC(CNS(=O)(=O)c2ccc(Cl)cc2)c2ccccc2)cc1` (stereo not given), the activation is inactive: 45.3%.

As for `O=C1NC(=O)/C(=C/c2ccc(-c3ccc(F)cc3O)o2)S1`, the activation is active: 62.4%.

As for `Cc1ccc(CNC(=O)C2CCN(c3ncnc4c3nc3n4CCCCC3)CC2)cc1`, the activation was inactive: -11.4%.

Regarding `COC(=O)c1cc(S(N)(=O)=O)ccc1OC`, the activation is inactive: -3.21%.

`COc1cc(NC(=O)COCc2cc(-c3ccc4c(c3)OCO4)on2)cc(OC)c1`: the activation was inactive: -11.8%.

In the case of `CN(C)c1ccc(/C=C(\C#N)c2nc(-c3ccc(Cl)c(Cl)c3)cs2)cc1`, the activation is inactive: 3.38%.

For `Cc1ccccc1-c1noc(-c2ccc(N3CCOCC3)c([N+](=O)[O-])c2)n1`, the activation was inactive: -9.09%.

For `Cn1c2ccccc2c2cnn(CC(=O)Nc3ccccc3C(F)(F)F)c(=O)c21`, the activation was inactive: 2.97%.

With `Cc1ccc(-n2c(=O)c3c(cnn3C)n(Cc3ccccc3F)c2=O)cc1`, the activation was inactive: -2%.

For `COc1cc(NC(=O)c2oc3c(c2C)-c2nn(Cc4cccc(Cl)c4)cc2CC3)cc(OC)c1`, the activation was inactive: -0.0585%.

As for `CCOc1ccc(N(C(C)C(=O)Nc2cc(Cl)ccc2OC)S(C)(=O)=O)cc1` (stereo not given), the activation is inactive: -13.8%.

As for `CCN(CC)C(=O)c1sc2c(c1C)c(=O)n(-c1ccc(OC)cc1OC)c(=O)n2CC(=O)c1ccc(Cl)cc1`, the activation was inactive: -9.61%.

In the case of `CCn1cc(S(=O)(=O)c2ccccc2)c(=O)c2cc(F)c(N3CCN(c4ccccc4)CC3)cc21`, the activation is inactive: -12.3%.

For `N#Cc1ccc(C(=O)Nc2ccc3c(c2)N(C2CCCC2)C(=O)c2ccccc2S3)cc1`, the activation was inactive: -4.98%.

On to `CCc1nn(CC(=O)Nc2ccc(N(CC)CC)cc2C)c(=O)c2cc3sccc3n12`, for which the activation was inactive: -15.9%.

For `CC(C)Sc1ncc(Cl)c(C(=O)N(Cc2ccc(N(C)C)cc2)C2CCS(=O)(=O)C2)n1` (stereo not given), the activation was inactive: -25.4%.

As to `Cc1ccc(Cn2c(CN3CCC(C(=O)NCCc4ccccc4)CC3)cc3ccccc32)cc1`, the activation was inactive: -28%.

In the case of `CCn1ccc2c(OCC(=O)NCc3ccc(F)cc3)cccc2c1=O`, the activation was inactive: 23.1%.

Take `O=C(NCCc1nc2ccccc2n1Cc1ccc(Cl)cc1Cl)c1ccco1`: the activation was inactive: -25.7%.

For the compound `Cc1nn(-c2ccc(N3CCCC3)nn2)c(C)c1CCC(=O)Nc1ccc(F)c(Cl)c1`, the activation was inactive: -6.68%.

As for `Cc1ccc(-c2noc(-c3ccccc3NC(=O)C3CC(=O)N(c4ccccc4C)C3)n2)cc1` (stereo not given), the activation was inactive: -9.69%.

With `CC(C)Cn1c(=O)c2ccccc2n2c(CCC(=O)NC(C)c3ccccc3)nnc12` (stereo not given), the activation is inactive: 5.86%.

Turning to `Cc1cc(C)c2nc(N(Cc3cccnc3)C(=O)c3cccs3)sc2c1`, the activation is inactive: -4.17%.

Take `CCOc1ccc(C2C(C(=O)Nc3ccccc3)=C(C)Nc3nc(SCc4cc(C)ccc4C)nn32)cc1` (stereo not given): the activation is inactive: -5.31%.

Turning to `COC(=O)c1c(Cl)c(Cl)c(C(=O)OC)c(Cl)c1Cl`, the activation was inactive: -18.1%.

On to `Cc1cc(C)c(S(=O)(=O)Nc2ccc(-c3ccc(N4CCCCCC4)nn3)cc2)c(C)c1`, for which the activation was inactive: -18.1%.

As to `CCCc1cc(C(=O)Nc2c(C)nn(Cc3c(Cl)cccc3Cl)c2C)no1`, the activation is inactive: -0.626%.

Take `Cn1cnnc1SCC(=O)Nc1ccc(C#N)cc1`: the activation is inactive: 5.72%.

Consider `COC(=O)c1ccc(OCC2c3cc(OC)c(OC)cc3CCN2C(=O)Cc2ccccc2)cc1` (stereo not given), for which the activation is inactive: -12.1%.

For the compound `CCc1ccccc1NC(=O)C1(C)Cc2ccccc2C(=O)O1` (stereo not given), the activation was inactive: -2.31%.
